This is an account of results in ChEMBL document CHEMBL1201862, “PubChem BioAssay data set” (2004).

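All cell lines were grown in 96-well plates and treated with compound for 48 hours. Abbreviation: GI50, concentration required for 50% inhibition of growth.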 Calls of active or inactive are those of the source. No stated cut-off is given here; in the data, active = GI50 up to about 1.1 µM and inactive = higher.

The test relates to NCI-H322M. The test can be described thus: NCI tumour cell line growth inhibition, 48 h.
`CN1CCN(C2=CC(=O)c3c(O)ccc(O)c3C2=O)CC1`: the GI50 is inactive: 1.54 µM.
The figure for `O=c1c(-c2ccc(O)cc2)coc2cc(OC3OC(CO)C(O)C(O)C3O)cc(O)c12` (stereo not given) is inactive: > 100 µM; for `C=CC(=O)N1C/C(=C\c2ccc(Cl)c(Cl)c2)C(=O)/C(=C/c2ccc(Cl)c(Cl)c2)C1` it is active: 0.296 µM.
To `NC(=O)Nc1n[nH]c(-c2ccccc2)n1` belongs inactive: > 100 µM; to `O=C1c2ccccc2-c2c1c1ccccc1c(=O)n2-c1ccccc1`, inactive: 7.6 µM.
The figure for `CN1C(=O)C(CC(=O)O)NC1=S` (stereo not given) is inactive: 40.8 µM.
As for `CNc1ncnc2c1nnn2C`, the GI50 is inactive: > 100 µM.
The figure for `COC(=O)[C@@H](O)[C@](O)(CCC(C)C)C(=O)O[C@@H]1C(OC)=C[C@]23CCCN2CCc2cc4c(cc2[C@H]13)OCO4` is inactive: 2.96 µM.
Take `CC(=O)Nc1ccc(N2C(=O)/C(=C\c3cccc(Oc4ccccc4)c3)SC2c2ccccc2)cc1` (stereo not given): the GI50 is inactive: 39.5 µM.
`CC(=O)OC1=CC(n2cc(F)c(=O)[nH]c2=O)OC(C)C1=O` (stereo not given): the GI50 was inactive: 56.6 µM.
The figure for `COc1cc(NS(C)(=O)=O)ccc1Nc1cc(C)nc2ccc3[nH]ccc3c12` is inactive: > 100 µM; for `Cc1c(-c2ccccc2)c(C#N)c2nnc(C(N)=O)c(N)n12` it is inactive: > 100 µM.
To `O=C1C=C/C(=N/c2ccccc2)c2ccccc21` belongs inactive: 6.73 µM.
To `CC(=O)OC1=C(CC(C)(C)C)C(=O)c2ccccc2C1=O` belongs inactive: 92.3 µM.
Take `CC1CC(NN(C)C)C2(C(N)=O)C(N)=NC(=O)C12C#N` (stereo not given): the GI50 was inactive: > 100 µM.
To `CC(C)C1CCC/C=C/C=C/C=C/C=C/C(OC2OC(C)C(O)C(N)C2O)CC2OC(O)(CC(O)CC(O)C(O)CCC(=O)O1)CC(O)C2C(=O)O` (stereo not given) belongs inactive: > 52.5 µM; to `CCOc1ccc(Nc2nc3c(s2)C(=O)c2ccccc2C3=O)cc1`, inactive: 18.7 µM; to `CCOC(=O)c1csc(NC(=O)C(C)N2CCOCC2)n1` (stereo not given), inactive: > 100 µM.
The figure for `CC(=O)Nc1ccc(NNc2cc(=O)n(C)c(=O)[nH]2)cc1` is inactive: 13.6 µM; for `O=C(O)CSc1n[nH]c(=O)[nH]c1=O` it is inactive: > 100 µM; for `C=C1CC2(C)CCC(OC(=O)C3(C)OC3C)C(C)(OC(C)=O)C2CC1=C(C)C` (stereo not given) it is inactive: > 100 µM.
On to `NS(=O)(=O)c1ccc(NC(NC(=O)C(C(F)(F)F)C(F)(F)F)(C(F)(F)F)C(F)(F)F)cc1`, for which the GI50 was inactive: > 100 µM.
For the compound `O=c1c2cc([N+](=O)[O-])ccc2n(Cc2ccccc2)n1Cc1ccccc1`, the GI50 is inactive: 27.2 µM.
Consider `CCOC(=O)/C=C/[C@H](O[Si](c1ccccc1)(c1ccccc1)c1ccccc1)C(C)(C)C`, for which the GI50 was inactive: > 31.6 µM.
To `CC(CO)C1C[C@H](O)[C@@]2(C)CC(=O)C=C(CO)[C@@H]2C1` (stereo not given in full) belongs inactive: > 100 µM.
The figure for `N#Cc1ccc(Nc2cnc3cc(N)ccc3n2)cc1` is inactive: 73.5 µM; for `C/C(=N\NC(=S)N1CCN(c2ccccn2)CC1)c1ncccn1` it is active: 0.00938 µM; for `COC12OC3(C4OC41)C(C(=O)O[C@H]3CO[Si](C)(C)C(C)(C)C)C2S(=O)(=O)c1ccccc1` (stereo not given in full) it is inactive: > 4.65 µM.
`COc1cc2c(cc1OC)C(N)CC2=O` (stereo not given): the GI50 was inactive: > 100 µM.
For the compound `Cc1nc2ccccc2c(=O)n1-c1ccccc1F`, the GI50 was inactive: > 100 µM.
The figure for `Cn1c(-c2ccc(C=O)o2)ccc1-c1ccc(C=O)o1` is inactive: > 100 µM; for `COc1ccc(C2C3=C(CCCC3=O)N(c3ccccc3)C3=C2C(=O)CCC3)cc1` it is inactive: > 100 µM.
The figure for `Nc1nc2ncn(CCO)c2c(=S)[nH]1` is inactive: > 100 µM.
Consider `Cc1ccccc1Cn1nc2ccccc2cc1=O`, for which the GI50 was inactive: > 100 µM.
To `CN(C)CC(C)(C)C(=O)/C=C/c1ccccc1` belongs inactive: 14.3 µM; to `CN1N=C(c2ccncc2)OC1c1ccc(Cl)cc1Cl` (stereo not given), inactive: > 100 µM.
To `COc1cc(C[S+]([O-])c2ccc(O)cc2)cc(OC)c1OC` (stereo not given) belongs inactive: > 100 µM; to `CC(NS(=O)(=O)c1ccc(Cl)cc1)C(=O)O` (stereo not given), inactive: > 100 µM; to `COc1ccc2nc(NC(=O)C(=O)C(C#N)c3ccc(CC#N)cc3)sc2c1` (stereo not given), inactive: > 100 µM.
The figure for `C=C[C@]1(C)CC(=O)C(C(C)C=O)[C@]12C(=O)Oc1cccc(C)c1C2=O` (stereo not given in full) is inactive: 18.7 µM.
On to `COc1cccc2c1C1=CC(=O)CCC1C(C)(C)O2` (stereo not given), for which the GI50 is inactive: > 100 µM.
The figure for `Cc1cc(CN(Cc2ccccc2)Cc2nc3ccccc3[nH]2)c(O)c(CN(Cc2nc3ccccc3[nH]2)Cc2nc3ccccc3[nH]2)c1` is inactive: 8.13 µM.
To `Cn1nc2ccc([N+](=O)[O-])cc2[n+]1[O-]` belongs inactive: > 100 µM.
To `C1=C2C3=[N+](CCCC3)CC2Cc2ccsc21` (stereo not given) belongs inactive: > 100 µM; to `COc1ccc(/C=C2\SC(c3ccc(OC)cc3)N(NC(=O)Cc3ccccc3)C2=O)cc1` (stereo not given), inactive: > 100 µM.
As to `CC1OC(n2ccc3ccc([N+](=O)[O-])cc32)C(O)C(O)C1O` (stereo not given), the GI50 was inactive: > 100 µM.
Regarding `CN(C)C(=S)Oc1ccc2ccc(=O)oc2c1`, the GI50 was inactive: > 100 µM.
The figure for `Oc1ccc([Te]CCNCC[Te]c2ccc(O)cc2)cc1` is inactive: 27.4 µM; for `O=[N+]([O-])c1ccc2c3c1[C@H]1O[C@H]1c1cccc(c1-3)[C@@H]1O[C@H]21` it is inactive: 6.22 µM; for `S=C1NC2=C(COC/C2=C\c2ccccc2Cl)C(c2ccccc2Cl)N1` (stereo not given) it is inactive: 43.4 µM.
As to `CCN(CC)CCC1CCCCN1CC(=O)N1c2ccccc2NC(=O)CC1C` (stereo not given), the GI50 is inactive: > 100 µM.
To `CC(C)(C)c1cc(-c2ccc(-c3cc(C(C)(C)C)c(O)c(C(C)(C)C)c3)cc2)cc(C(C)(C)C)c1O` belongs inactive: > 100 µM; to `O=S(O)CCCSSc1ccccc1`, inactive: > 100 µM.
The figure for `COc1cc(-c2ccc(/N=N/c3c(S(=O)(=O)O)cc4cc(S(=O)(=O)O)cc(N)c4c3O)c(OC)c2)ccc1/N=N/c1c(S(=O)(=O)O)cc2cc(S(=O)(=O)O)cc(N)c2c1O` is inactive: 97.1 µM.
For `C=C1C(=O)C23C(O)C1CCC2C12CO[C@]3(O)[C@@H](O)C1C(C)(C)CCC2O` (stereo not given in full), the GI50 was inactive: 16.2 µM.
To `CN1CC[C@]2(C)c3ccc(O)cc3CC3CCCC1C32C` (stereo not given in full) belongs inactive: > 100 µM.
The figure for `CN(Cc1cnc2nc(N)nc(N)c2n1)c1ccc(C(=O)NCCS(=O)(=O)O)cc1` is inactive: > 100 µM; for `N#C/C(=C\c1cc(O)ccc1O)C(N)=O` it is inactive: 35.7 µM; for `COc1ccc2nc3ccccc3c(NCCN(CCCl)CCCl)c2c1` it is active: 0.979 µM.
Take `O=C1C(c2ccccc2)=[N+]([O-])c2ccccc21`: the GI50 is inactive: 16.7 µM.
